From PubChem BioAssay AID504332 (National Center for Advancing Translational Sciences (NCATS), 2011)
Hit rate of the full screen: of about 350,000 compounds, about 31,000 (8.9%) were called active. Inconclusive means that the source gave no clear call. Such entries were picked first, then a sample of the others. Calls come from the whole dose curve; as a rule, active = well fitted inhibition curve with a large enough effect; inconclusive = small, poorly fitted or top-dose-only effect; inactive = no such curve, though single readings can be large or run the other way. Where the call is inconclusive, the potency comes from a doubtful curve fit.

Each molecule was assayed against Histone-lysine N-methyltransferase EHMT2 (Homo sapiens) (UniProt Q96KQ7) (assay: qHTS Assay for Inhibitors of Histone Lysine Methyltransferase G9a). Conditions: G9a H3K9 monomethylation, AlphaScreen, 2 h; activity, negative = inhibition: at 59 µM (top of the series) unless noted.
UniProt Q96KQ7, sequence (Q96KQ7 whole entry, looked up): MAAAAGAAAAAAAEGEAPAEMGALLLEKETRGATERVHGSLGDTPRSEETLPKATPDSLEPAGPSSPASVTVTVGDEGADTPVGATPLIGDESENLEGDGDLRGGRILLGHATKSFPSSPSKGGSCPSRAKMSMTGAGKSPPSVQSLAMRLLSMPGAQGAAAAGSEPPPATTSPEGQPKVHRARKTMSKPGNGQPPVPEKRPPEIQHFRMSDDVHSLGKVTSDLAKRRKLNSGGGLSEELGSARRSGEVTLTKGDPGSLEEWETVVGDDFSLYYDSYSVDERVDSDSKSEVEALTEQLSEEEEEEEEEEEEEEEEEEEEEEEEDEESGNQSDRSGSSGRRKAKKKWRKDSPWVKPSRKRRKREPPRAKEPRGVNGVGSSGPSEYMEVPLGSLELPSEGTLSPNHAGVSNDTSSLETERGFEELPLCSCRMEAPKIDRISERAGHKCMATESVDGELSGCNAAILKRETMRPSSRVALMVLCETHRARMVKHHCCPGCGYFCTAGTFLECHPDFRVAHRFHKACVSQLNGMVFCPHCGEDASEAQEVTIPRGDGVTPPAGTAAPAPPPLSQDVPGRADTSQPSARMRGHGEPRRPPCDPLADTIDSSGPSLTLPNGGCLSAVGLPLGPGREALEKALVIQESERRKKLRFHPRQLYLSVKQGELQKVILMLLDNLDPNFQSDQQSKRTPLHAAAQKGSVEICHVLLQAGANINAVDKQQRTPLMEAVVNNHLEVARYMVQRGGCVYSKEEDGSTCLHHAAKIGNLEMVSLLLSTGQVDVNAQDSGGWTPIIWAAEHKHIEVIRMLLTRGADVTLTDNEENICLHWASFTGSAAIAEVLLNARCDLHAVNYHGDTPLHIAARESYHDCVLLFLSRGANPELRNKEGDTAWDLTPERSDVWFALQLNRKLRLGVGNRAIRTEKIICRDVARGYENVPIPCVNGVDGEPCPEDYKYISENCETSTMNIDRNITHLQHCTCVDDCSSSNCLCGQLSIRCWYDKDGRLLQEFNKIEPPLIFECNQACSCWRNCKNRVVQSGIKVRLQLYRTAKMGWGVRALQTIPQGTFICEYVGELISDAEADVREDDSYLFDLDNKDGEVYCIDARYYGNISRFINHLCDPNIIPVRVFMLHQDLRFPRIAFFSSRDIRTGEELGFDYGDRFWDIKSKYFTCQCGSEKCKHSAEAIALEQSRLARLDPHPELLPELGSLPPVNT
Method in brief: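 Chemiluminescent proximity detection of H3K9 monomethylation, read after 10 min bead incubation in the dark. Reaction: 20 nM G9a, 500 nM biotin-H3K9 peptide, 20 uM SAM cofactor, 2 h, room temperature, following 15 min enzyme-compound preincubation.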
% is set by controls: 0 for no effect and ±100 for the full control effect; potency is the fitted concentration of half-maximal effect; tags give direction and shape of the fitted curve.
Note: nearly all actives have a fitted effect of over 75% in size.

Compound | activity, negative = inhibition | Potency
COc1ccc(-c2nc3ccc(C(=O)NCCCN4CCOCC4)cc3nc2-c2ccc(OC)cc2)cc1 | inactive: -14.6% [at 102 µM] | 
CCCn1c(SCC(=O)N2CCc3ccccc32)nnc1-c1ccncc1 |  | inconclusive: 89.1 µM [inhibitor, partial curve, poor fit]
CCOc1ccc(CCNC(=O)Cn2ncc3c([nH]c4ccccc43)c2=O)cc1OCC | inactive: 10.2% | 
Cn1nc(-c2ccc(Cl)cc2)nc2c(=O)n(C)c(=O)nc1-2 |  | inconclusive: 44.7 µM [inhibitor, partial curve, poor fit]
Cc1ccc(OC(=O)c2ccc(C)c([N+](=O)[O-])c2)cn1 |  | inconclusive: 56.2 µM [inhibitor, partial curve]
O=C(NC(=S)Nc1cc([N+](=O)[O-])ccc1O)c1ccc2c(c1)OCO2 |  | inconclusive: 70.8 µM [inhibitor, single point]
O=C(Nc1ccc2c(c1)nc1n2CCSC1)c1ccccc1 | inconclusive: -89.7% [inhibitor] | 
Fc1ccc(CSc2nncn2NCc2ccccc2)cc1 | inactive: 16.4% | 
O=C(N/N=C/c1ccc(O)c2ccccc12)c1cccnc1 | inactive: 17.3% [at 102 µM] | 
CCOC(=O)c1ccn(-c2nc(-c3ccco3)cc(C(F)(F)F)n2)n1 |  | inconclusive: 39.8 µM [inhibitor, single point]
Cc1nn(-c2ccc([N+](=O)[O-])cc2)c(N)c1-c1ccccc1 | inactive: -30.9% [at 102 µM] | 
COC(=O)CCC(=O)c1oc2ccc(Cl)cc2c1NC(=O)CCCN1C(=O)c2ccccc2C1=O | inactive: -15.7% [at 0.0925 µM] | 
CC(C)c1ccc2c(c1)NC(c1ccncc1)=NC(c1cccs1)=N2 |  | inconclusive: 22.4 µM [inhibitor, single point]
COc1ccc(-c2cc(OC(=O)c3ccccc3)c3c(C)oc(C)c3c(=O)c2)cc1OC |  | active: 14.1 µM
COc1ccccc1-c1cc(-n2ccnc2)ncn1 | inactive: -41.5% [at 0.501 µM] | 
COc1ccccc1Oc1ccc(N/C=C2/CCCC2=O)cc1 |  | inconclusive: 25.1 µM [inhibitor, single point]
Cc1oc2c(O)c(O)ccc2c(=O)c1-c1ccc(Cl)cc1 |  | active: 5.01 µM
CCC(C)(C)n1nnnc1C(c1cc2cccc(C)c2[nH]c1=O)N1CCN(C(=O)c2ccco2)CC1 (centres undefined) |  | inconclusive: 11.2 µM [inhibitor, partial curve, poor fit]
COc1ccc2c(c1)c(=O)oc1cc3oc(C)c(C)c3cc12 |  | inconclusive: 35.5 µM [inhibitor, single point]
O=C(COc1ccc(F)cc1)NN1C(=O)CSC1=S |  | inconclusive: 44.7 µM [inhibitor, partial curve]
Cc1ccccc1Nc1nc(-c2sc(NC(=O)c3ccc([N+](=O)[O-])cc3)nc2C)cs1 |  | active: 25.1 µM
Cc1cc(C)cc(-n2c(C)nc3cc(C(=O)NCc4ccc(F)cc4)ccc32)c1 |  | inconclusive: 39.8 µM [inhibitor, partial curve, poor fit]

Compound | activity, negative = inhibition | Potency
CC1(c2ccc(OC(F)F)cc2)NC(=O)N(CC(=O)N2c3ccccc3NC(=O)C2(C)C)C1=O (centres undefined) |  | inconclusive: 0.1 µM [inhibitor, full curve, poor fit]
O=C(O)CCN1C(=O)/C(=C\c2ccc(OCc3ccccc3)c(OCc3ccccc3)c2)SC1=S |  | active: 25.1 µM
Cc1ccc(S(=O)(=O)Nc2cccc3cccnc23)cc1 | inactive: 45.2% [at 102 µM] | 
CCCN1C(=O)c2[nH]nc(-c3cccc(OC)c3)c2C1c1ccccn1 (centres undefined) | inactive: -35.9% | 
COc1cc2c(cc1OC)/C(=C/C(=O)N1CCOCC1)NC(C)(C)C2 |  | inconclusive: 50.1 µM [inhibitor, partial curve, poor fit]
COc1ccc(N/N=C(\C#N)C(=N)SCc2ccccc2)cc1 |  | active: 28.2 µM
CC1=C(C(=O)Nc2ccc(Cl)cc2C(=O)N2CCC(C(N)=O)CC2)SCCO1 | inactive: 35.3% [at 102 µM] | 
Cc1ccc(S(=O)(=O)C2(C(=O)NCc3ccc4c(c3)OCO4)CC2)cc1 |  | inconclusive: 31.6 µM [inhibitor, partial curve, poor fit]
Cc1cc(C)cc(OCc2ccc(C(=O)NN)o2)c1 | inactive: -31.1% [at 102 µM] | 
C/C(=N\Nc1ccc(C(=O)O)cc1)c1ccc(S(=O)(=O)NCc2ccco2)cc1 |  | inconclusive: 89.1 µM [inhibitor, partial curve, poor fit]
Nc1c(C(=O)N2CCCC2)sc2nc(-c3ccccc3)ccc12 |  | inconclusive: 89.1 µM [inhibitor, single point]
Cc1cc(C)cc(NC(=O)c2cnn(-c3ccc(C)c(C)c3)c2C2CCNCC2)c1 |  | inconclusive: 7.08 µM [inhibitor, partial curve, poor fit]
CCOc1ccc(CCNC(=O)c2cn(-c3cccc(OC)c3)c(=O)c3ccccc23)cc1 |  | inconclusive: 10 µM [inhibitor, partial curve, poor fit]
CCC(C)NC(=O)c1ccc2c(c1)N(Cc1ccccc1F)C(=O)c1ccccc1S2=O (centres undefined) | inactive: -3.38% | 
COc1cc(C(C)=O)ccc1OCCCN1CCC(Cc2ccccc2)CC1 |  | active: 35.5 µM
O=C(CCOc1ccccc1)Nc1ccnn1C1CCN(Cc2ccc(O)cc2)CC1 |  | inconclusive: 70.8 µM [inhibitor, single point]
CN(C#N)c1nc(Cl)nc(Nc2cccc(Cl)c2)n1 | inactive: -16.4% [at 102 µM] | 
Cc1cc(NS(=O)(=O)c2ccc(NS(=O)(=O)c3ccc(CC(C)C)cc3)cc2)nc(C)n1 |  | inconclusive: 56.2 µM [inhibitor, partial curve, poor fit]
O=C(NC(=S)N1CCCC(C(F)(F)F)C1)c1ccc(F)cc1 (centres undefined) |  | inconclusive: 79.4 µM [inhibitor, single point]
CCOc1ccccc1NC(=S)Nc1ncccc1C |  | active: 10 µM
O=C(COC(=O)C1CC1)Nc1ccc([N+](=O)[O-])cc1C(F)(F)F |  | inconclusive: 15.8 µM [inhibitor, single point]
CCOC(=O)c1c(C)oc2nc(C)nc(NCCCN3CCN(c4ccc(F)cc4)CC3)c12 |  | inconclusive: 10 µM [inhibitor, partial curve]
